# Results as given in PubChem BioAssay AID624296 (National Center for Advancing Translational Sciences (NCATS), 2012).
# In all, about 350,000 compounds went through this assay and about 9,900 (2.8%) were called active. The inconclusive results got no clear call from the source; some entries with a clear call stand among them for comparison. Calls come from the whole dose curve; as a rule, active = well fitted activation curve with a large enough effect; inconclusive = small, poorly fitted or top-dose-only effect; inactive = no such curve, though single readings can be large or run the other way. Potencies of inconclusive entries are left out as doubtful fits.
# Assay: A quantitative high throughput screen for small molecules that induce DNA re-replication in MCF 10a normal breast cells. For activity, positive = re-replication: % of control where 0% means no effect. Note: nearly all actives have a fitted effect of over 50% in size.
# Conditions: MCF 10A DNA re-replication, Hoechst nuclear intensity, 48 h; activity, positive = re-replication: at 46.1 µM (top of the series)
# Text: H Molecular Libraries Probe Production Network [MLPCN]
# NIH Chemical Genomics Center [NCGC]
# Assay Provider: Melvin DePamphilis, NICHD, NIH
# Eukaryotic cells normally restrict genome duplication to once per cell division. When this process is aberrant, DNA re-replication occurs when cells reinitiate DNA replication before the first round of replication is complete. DNA re-replication induces the DNA damage response, arrests cell proliferation, and triggers apoptosis. The cell cycle components cyclin A, Cdt-1, Cdc6 and geminin are critical regulators of this process and their misregulation results in DNA re-replication in normal and cancer cells. To identify compounds that induce re-replication in normal cells, an image-based assay was used to measure DNA content of nuclei, as detected by the fluorescent DNA binding dye, Hoechst. Cell nuclei were imaged by a fluorescence scanning plate imager and compounds that induce DNA re-replication were identified by the increase of nuclei with elevated fluorescence intensity
# For screening, 250 cells in 5 uL/well were dispensed into black clear 1536-well plates (Aurora) using a solenoid-based dispenser. Following transfer of 23 nL compound or DMSO vehicle by a pin tool, the plates were incubated 48 hr at 37 C and 5% CO2. After addition of 1 uL/well Hoescht stain, the plates were incubated 40 min at 37 C, 5% CO2 and total intensity of fluorescent objects (nuclei) were enumerated by an Acumen Explorer Ex3 (TTP LabTech) fluorescence scanning plate imager (405 nm excitation, 500-530 nm emission).
# Keywords: NIH Roadmap, MLPCN, MLI, MLSMR, qHTS, NCGC, DNA replication, cancer
# Potency is the fitted concentration of half-maximal effect; tags give direction and shape of the fitted curve.
Structure (SMILES),Potency,"activity, positive = re-replication"
COc1ccc(-n2cc(-c3ccccc3)c3c(NN4CCOCC4)ncnc32)cc1,"inconclusive [activator, partial curve]",
CC(C(=O)c1ccccc1)[n+]1cccc(C(N)=O)c1 (configuration not stated),"inconclusive [activator, full curve, poor fit]",
O=[N+]([O-])c1ccc(N/N=C\c2cccn2-c2ccccc2)nc1,active: 14.6 µM,
CCCc1cc(NCCCN(C)C)n2c(nc3ccccc32)c1C#N,"inconclusive [activator, partial curve, poor fit]",
CCN(CC)Cc1c(O)ccc2cc(-c3nc4ccccc4n3C)c(=O)oc12,"inconclusive [activator, partial curve, poor fit]",
COc1ccc(OC)c(/C=N\NC(=O)c2ccc(COc3ccc(C)cc3[N+](=O)[O-])o2)c1,"inconclusive [activator, single point]",
CCCCNCCOCCOc1ccc(C)cc1Br,"inconclusive [activator, partial curve, poor fit]",
Cc1nc(Cl)cc(N/N=C/c2ccccc2)n1,"inconclusive [activator, partial curve, poor fit]",
Cc1nc(SCc2nc3ccc(Cl)cc3[nH]2)c2oc3ccccc3c2n1,"inconclusive [activator, single point]",
Cc1sc(NC(=O)CN2CCOCC2)c(C(=O)c2ccccc2)c1C,"inconclusive [activator, partial curve, poor fit]",
O=C(N/N=C/c1ccccc1O)C1(O)c2ccccc2-c2ccccc21,"inconclusive [activator, partial curve, poor fit]",
COc1ccc(NC(C)C(=O)N/N=C/c2c(O)ccc3ccccc23)cc1 (configuration not stated),"inconclusive [activator, single point]",
CCC[C@H](CN[C@@H](CNC)[C@H](C)CC)NCCc1cc(C(F)(F)F)cc(C(F)(F)F)c1,"inconclusive [activator, partial curve, poor fit]",
O=C(Nc1cccc(S(=O)(=O)NC2=NCCCCC2)c1)c1cc(-c2ccco2)nc2ccccc12,active: 16.4 µM,
Cc1ccc(S(=O)(=O)N2CCCCC2)cc1C(=O)OCC(=O)NC(=O)NC12CC3CC(CC(C3)C1)C2,"inconclusive [activator, partial curve, poor fit]",
Cn1ccc2cc(-c3ccc4ncnc(NCc5cccs5)c4c3)ccc21,active: 11.6 µM,
CC(C)N1CCC2(CC1)Oc1ccc(Br)cc1C1CC(c3cccnc3)=NN12 (configuration not stated),"inconclusive [activator, single point]",
CC1(CC(=O)N/N=C/c2cc([N+](=O)[O-])c(O)cc2O)OCCO1,inactive,
COc1ccccc1N1CCN(CC(=O)Nc2nc(C)c(C(=O)N(C)C)s2)CC1,inactive,
Cc1ccc(NC(=O)C2(c3ccccc3)CC2(Cl)Cl)cc1C (configuration not stated),active: 20.6 µM,
COc1cc(/C=N/N2CCN(c3ccccc3)CC2)cc(OC)c1OC(C)=O,inactive,
Fc1ccc(N2CCN(C3=Nc4cccc5cccc3c45)CC2)cc1,"inconclusive [activator, full curve]",
CC(C)(C)c1cc(=O)n(-c2ccccc2)[nH]1,"inconclusive [activator, single point]",

Structure (SMILES),Potency,"activity, positive = re-replication"
O=C(Nc1ccc2c(c1)OCO2)c1noc2c1CCCC2,inactive,
COc1cc(/C=N\NC(=O)c2ccc(-c3ccccc3)cc2)ccc1OCC(N)=O,"inconclusive [activator, single point]",
Oc1ccc(/C=N/NC(=S)Nc2cccnc2)cc1,"inconclusive [activator, partial curve, poor fit]",
CC(C)NC(=O)NC(=O)CN1c2cccc3cccc(c23)S1(=O)=O,inactive,
CN(C)CCCn1c(N)c(C#N)c2nc(C#N)c(C#N)nc21,active: 7.31 µM,
CC1=NN2C(=N)/C(=C\c3ccc(SCc4ccccc4)o3)C(=O)N=C2S1,"inconclusive [activator, partial curve, poor fit]",
Cc1cccc(NC(=O)c2ccc(CN3CCc4ccccc4C3)cc2)c1C,active: 23.1 µM,
Cc1cccc(CS(=O)(=O)Cc2ccc(C(=O)NCCc3ccccc3)o2)c1,"inconclusive [activator, single point]",
Cc1ccc(NC(=O)Nc2cc(C(F)(F)F)c[nH]c2=O)cc1,,inconclusive: -21.6% [activator]
Cc1ccc(C)c(NC(=O)CCC(=O)N/N=C/c2ccc[nH]2)c1,inactive,
CCOC(=O)c1nnc(-c2ccccc2)nc1Sc1ccccc1Cl,active: 6.51 µM,
Cc1ccc(/C=C/C(=O)NC(=S)Nc2ccc(S(=O)(=O)Nc3cc(C)on3)cc2)cc1,"inconclusive [activator, single point]",
CCCCOc1ccc(Br)cc1CSC(=N)N,"inconclusive [activator, full curve, poor fit]",
COc1ccc(-c2nnc(-c3ccc(OCC(C)C)cc3)o2)cc1,"inconclusive [activator, partial curve, poor fit]",
CC1CCCCN1C(=O)C1CCN(c2nc(-c3ccccc3)nc3c2CCC3)CC1 (configuration not stated),"inconclusive [activator, single point]",
COc1ccc(N(Cc2ccccc2)S(=O)(=O)c2cc(C(=O)O)ccc2Cl)cc1,active: 18.4 µM,
CC(=O)c1cccc(NC(=O)CSc2nc(=O)n(CCN3CCOCC3)c3c2CCCC3)c1,inactive,
COc1ccc2occ(C(=O)c3ccc(N=C(C)N(C)C)cc3)c2c1,"inconclusive [activator, single point]",
O=C(N/N=C/c1ccc(F)cc1)c1cc(-c2ccco2)nc2ccccc12,active: 13 µM,
COc1ccc(Cl)cc1NC(=O)CSc1nc(NS(=O)(=O)c2ccc(C)cc2)cc(=O)[nH]1,inactive,
O=C(NCc1ccccn1)c1cn(CCc2ccccc2)nn1,"inconclusive [activator, full curve, poor fit]",
COc1ccc(CN2CCN(C(=O)CC(C)C)CC2)c2ccccc12,"inconclusive [activator, single point]",
O=C(Nc1cccc(C(F)(F)F)c1)c1cc(-c2ccc(F)cc2)on1,"inconclusive [activator, partial curve, poor fit]",

Structure (SMILES),Potency,"activity, positive = re-replication"
Cc1ccc(S(=O)(=O)N2CCOC23CCN(C(=O)C(=O)NCc2ccccc2)CC3)cc1,"inconclusive [activator, partial curve, poor fit]",
O=C(Cc1ccc(N2CCNC2=O)cc1)N1CCCC(Nc2cccc(F)c2)C1 (configuration not stated),active: 3.66 µM,
Cc1cccc(C)c1-c1ccc(CN2C(CC(C)C)C(=O)N(Cc3cn(CC4CCCCC4)nn3)CCS2(=O)=O)cc1 (configuration not stated),"inconclusive [activator, single point]",
CCCc1cc(=O)[nH]c(SCC(=O)N(C)Cc2ccccc2)n1,"inconclusive [activator, single point]",
Cc1cc(OCC(O)CN)ccc1Cl (configuration not stated),inactive,
O=C(Cc1cccs1)N=Nc1c(O)[nH]c2ccc(Br)cc12,inactive,
C1CCN(CCCNC2C3CC4CC(C3)CC2C4)C1 (configuration not stated),"inconclusive [activator, single point]",
O=C(C1CCC1)N1CCc2cc(S(=O)(=O)N3CCN(c4ccccn4)CC3)ccc21,"inconclusive [activator, partial curve, poor fit]",
Cc1ccc(S(=O)(=O)N2CCN(C(=O)Cn3nc(C)c([N+](=O)[O-])c3C)CC2)cc1,inactive,
COC1=CC(=O)C=C(OC)C1(O)CC(C)=O,"inconclusive [activator, single point]",
CC(=O)c1cc(Cl)ccc1OC(=O)c1ccco1,inactive,
CCN(CC)CCCNC(=O)C1CCN(C(=O)c2cc3sccc3n2Cc2ccc(F)cc2)CC1,"inconclusive [activator, partial curve, poor fit]",
O=C(CCCSc1ccccc1)Nc1nc(-c2ccco2)c(-c2ccco2)s1,active: 14.6 µM,
COc1cc(CCC(=O)Nc2ccc(Br)c(C(F)(F)F)c2)cc(OC)c1OC,"inconclusive [activator, single point]",
O=C(CSc1nnc(CCc2ccccc2)n1-c1ccc(Cl)cc1)c1ccccc1,"inconclusive [activator, single point]",
COc1cc(NC(=O)COC(=O)CSc2ccc3ccccc3c2)c(C)cc1[N+](=O)[O-],"inconclusive [activator, partial curve, poor fit]",
CN(CCOc1ccccc1)CC(=O)Nc1ccc(S(=O)(=O)N2CCCC2)cc1,"inconclusive [activator, partial curve, poor fit]",
CC(=O)C1=C(C)NC(SCC(=O)Nc2nccs2)=C(C#N)C1c1ccccc1Cl (configuration not stated),active: 1.84 µM,
O=C(CN(C1CCCCC1)S(=O)(=O)c1ccccc1)NCC1CCCO1 (configuration not stated),inactive,
Cc1cc(Nc2cccc([N+](=O)[O-])c2)c2ccccc2n1,"inconclusive [activator, single point]",
Cc1ccccc1C(=O)N1CCC(C(=O)Nc2ccc(S(=O)(=O)N3CCCC3)cc2)CC1,"inconclusive [activator, single point]",
